Several values for one entry are separate records, joined by “and”; a condition that tells them apart may be missing. Equal entries are not always repeated. Out of some 16,000 compounds screened, about 40 (0.2%) were called active. Inconclusive results (about 1%) are left out. Calls come from the whole dose curve; as a rule, active = well fitted activation curve with a large enough effect; inconclusive = small, poorly fitted or top-dose-only effect, or another doubt; inactive = no such curve, though single readings can be large or run the other way. This is one part of the list. Residues, ends and D or L forms follow the SMILES beside them. *: point of attachment. X3 = NCCCC[C@@H](CN)N*
Target: Rap guanine nucleotide exchange factor 4 (Homo sapiens) (UniProt Q8WZA2)
Assay: Validation qHTS for agonist of cAMP-regulated guanine nucleotide exchange factor 4 (EPAC2);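 note: exchange makes BODIPY-GDP fluorescence drop when released from Rap1B; series mostly up to about 150 µM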
Settings: EPAC2 Rap1B BODIPY-GDP exchange, fluorescence; activation: hits give high values
Procedure, shortened: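 Fluorescent exchange assay: 100 nM EPAC2 with 250 nM RAP1B-BODIPY-GDP and 50 uM GDP; compound added, 5 min at room temperature, then read (ex 480/em 540 nm) every 5 min for 30 min. Normalized to 6.5 mM cAMP agonist control.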
% is set by controls: 0 for no effect and ±100 for the full control effect.

UniProt Q8WZA2, sequence (Q8WZA2 whole entry, looked up): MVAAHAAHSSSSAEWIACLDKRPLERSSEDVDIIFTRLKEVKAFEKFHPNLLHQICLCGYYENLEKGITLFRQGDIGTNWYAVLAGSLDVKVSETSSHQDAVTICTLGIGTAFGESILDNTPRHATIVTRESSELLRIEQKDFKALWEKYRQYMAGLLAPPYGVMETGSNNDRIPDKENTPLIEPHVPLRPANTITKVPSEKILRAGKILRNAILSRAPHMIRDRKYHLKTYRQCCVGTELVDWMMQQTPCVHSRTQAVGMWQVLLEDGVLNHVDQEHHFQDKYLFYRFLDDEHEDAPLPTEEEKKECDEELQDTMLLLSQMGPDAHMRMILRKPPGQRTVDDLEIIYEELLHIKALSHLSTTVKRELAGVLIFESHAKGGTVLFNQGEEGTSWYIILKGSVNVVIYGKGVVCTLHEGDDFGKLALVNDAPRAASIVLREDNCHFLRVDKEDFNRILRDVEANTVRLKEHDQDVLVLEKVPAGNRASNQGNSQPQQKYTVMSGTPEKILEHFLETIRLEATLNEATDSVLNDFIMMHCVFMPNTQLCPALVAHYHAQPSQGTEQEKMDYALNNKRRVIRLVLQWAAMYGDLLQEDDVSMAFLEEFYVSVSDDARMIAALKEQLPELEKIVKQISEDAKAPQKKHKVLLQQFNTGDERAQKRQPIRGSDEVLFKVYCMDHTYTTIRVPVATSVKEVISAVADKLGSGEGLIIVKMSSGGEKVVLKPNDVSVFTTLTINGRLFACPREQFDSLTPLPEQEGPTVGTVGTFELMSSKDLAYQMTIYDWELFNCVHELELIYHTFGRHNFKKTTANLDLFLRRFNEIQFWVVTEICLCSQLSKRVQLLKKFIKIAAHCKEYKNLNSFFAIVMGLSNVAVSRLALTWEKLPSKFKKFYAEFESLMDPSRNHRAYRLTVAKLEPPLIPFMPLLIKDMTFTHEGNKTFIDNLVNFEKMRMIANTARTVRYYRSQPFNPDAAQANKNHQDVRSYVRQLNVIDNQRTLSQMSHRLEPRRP

activation, inactive:
O=C(CCNNC(=O)c1ccncc1)NCc1ccccc1 0.755% and -13.8%
COc1ccc(C(=O)c2coc3ccc(O)cc23)cc1 11.4%
COc1cc2c(C)c3c4c(cc(OC)c(OC)c4c2cc1OC)CCN3C 7.68%
CCN1CCCC1CNC(=O)c1cnn(-c2ncc(C)c(-c3ccc(F)cc3)n2)c1C(C)C (stereo unspecified) -10.9%
CCCCC[C@H](O)/C=C/[C@H]1[C@H](O)CC(=O)[C@@H]1C/C=C\CCCC(=O)O -6.33%
Cc1cccc(CNc2ncnc3ccc(-c4ccc5c(c4)OCO5)cc23)c1 -0.507%
CC(=O)OC1CC(OC(C)=O)[C@]2(C)C(CC(OC(C)=O)[C@]3(C)C2CC[C@@]2(C)C(c4ccoc4)OC(=O)C4O[C@]432)C1(C)C (stereo partly specified) 2.29%
N[C@@H](Cn1ccc(=O)n(Cc2ccccc2C(=O)O)c1=O)C(=O)O -0.859%
C=C1C2CC[C@]3(CCC4[C@@]5(C)CCC[C@@]4(CN(CCO)C5)[C@@H]3C2)[C@@H]1O (stereo partly specified) -12.7%
CC(C(=O)O)C1CCC2C3CC=C4CC(O)CC[C@@]4(C)C3CC[C@]12C (stereo partly specified) -5.25%
Cn1c(=O)c(-c2cccs2)nc2cnc(N3CCOCC3)nc21 -11.2%
C[C@H](NC(=O)CNC(=O)[C@@H](NC(=O)[C@H](Cc1ccccc1)NC(=O)CNC(=O)CNC(=O)[C@@H](N)Cc1ccccc1)[C@@H](C)O)C(=O)N[C@@H](CCCN=C(N)N)C(=O)N[C@@H](CCCCN)C(=O)N[C@@H](CO)C(=O)N[C@@H](C)C(=O)N[C@@H](CCCN=C(N)N)C(=O)N[C@H](CN)CCCCN (H-FGGFTGARKSAR-X3) 1.52%
COc1ccc(-c2nc3cnc(N4CCOCC4)nc3n(CCc3ccccc3)c2=O)cc1 -20.8%
COc1cccc(-c2nccc(NCc3cccc(C)c3)n2)c1 -40.8%
C=CCN([C@H](C(=O)OC)C(C)C)S(=O)(=O)CCNCc1ccccc1 -37.8%
COCCn1c(=O)c(-c2ccccc2)nc2cnc(Oc3cccc(Cl)c3)nc21 -7.57%
CC1=C(C(=O)OCc2cc(C)on2)N2C(=O)[C@@H](NC(=O)OCc3cc(C)on3)[C@H]2SC1 -7.69%
COc1ccc(CN2[C@@H](CC(=O)O)c3cc(F)ccc3S2(=O)=O)cc1 -13.6%
CN1[C@@H]2CC(OC(=O)[C@H](CO)c3ccccc3)C[C@H]1[C@@H]1O[C@@H]12 (stereo partly specified) 12.4% and 1.58%
CCNc1ncc2nc(-c3ccc(Cl)cc3)c(=O)n(C3CC3)c2n1 -10.6%
CCC1CN(Cc2cccc3nccnc23)Cc2cc(OC)ccc2O1 (stereo unspecified) -6.49%
COCC(=O)N1CCC2(CC1)CN(C(=O)Nc1ccc(OC)cc1)C2 -2.81%
COc1ccc2c3c1OC1C[C@@H](O)C=C[C@@]31CCN(C)C2 (stereo partly specified) -4.02%
O=C(c1cnccn1)N1CCC2(CCCN(c3ncccn3)C2)CC1 -3.86%
c1cn(-c2ncnc3ccc(-c4ccoc4)cc23)cn1 -14.5%
CC/C(=C/c1ccccc1OC)c1cc(-c2ccccc2)cc2oc3ccccc3c12 5.25%
Cc1cc(C(=O)NCC2CCC3(CCN(Cc4ccc(-c5ccccc5)cc4)CC3)O2)n(C)n1 (stereo unspecified) -0.57%
CC(=O)c1ccc[nH]1 -1.71%
O=c1c(-c2ccccc2)coc2cc(O)cc(O)c12 -13.2%
Nc1nc(N)c(N=O)c(OCC2CCCCC2)n1 -8.47%
CO[C@@H]1[C@H](OC(=O)/C=C/C=C/C=C/C=C/C(=O)O)CC[C@]2(CO2)[C@H]1[C@@]1(C)O[C@@H]1CC=C(C)C -34.1%
NC(=O)c1cnccn1 -2.36% and -1.42% and -27%
Cc1c(-c2ccc(Cl)cc2)noc1C1CCN(CCc2ccccc2)CC1 -12.1% and 9.41%
O=c1c(-c2ccc(F)cc2)nc2cnc(Nc3ccccc3)nc2n1C[C@H]1CCCO1 3.28%
NC(C(=O)O)c1cc(O)c(Cl)c(O)c1 (stereo unspecified) 4.03%
CC(C)(C)CC(C)(C)c1cc(Cc2cc(C(C)(C)CC(C)(C)C)cc(-n3nc4ccccc4n3)c2O)c(O)c(-n2nc3ccccc3n2)c1 -3.67%
Cc1nc2cnc(Oc3cccc(Cl)c3)nc2n(Cc2ccc(F)cc2)c1=O -2.25%
CCn1c(-c2ccccc2F)nc2cc(NC(C)=O)cc(C(=O)N(C)Cc3c(C)nc4ccccn34)c21 -1.69%
CS(=O)(=O)N1CCC[C@@]2(CCN(Cc3nccs3)C2)C1 -15.8%
CC(=O)[O][Al][O]C(C)=O -13.4%
O=C(Nc1ccccc1)N1CC2(CCN(S(=O)(=O)c3ccccc3)CC2)C1 -8.28%
CCCCCCCCOc1ccc(C(=O)c2ccccc2)c(O)c1 -5.77%
CCN(CC)C(=O)[C@]1(c2ccccc2)C[C@@H]1CN -20.9%
NC1CONC1=O (stereo unspecified) -20.7%
Cc1[nH]c(=O)c(C#N)cc1-c1ccc2nccn2c1 -16.1% and -40.6%
CCCCCCCCCCCC[n+]1ccc(C)c2ccccc21 -20.5%
COc1ccc2[nH]cc(CCNc3cc(-c4cccc(C#N)c4)ncn3)c2c1 4.73%
CN(C)c1ncc2nc(-c3ccc(Cl)cc3)c(=O)n(C[C@H]3CCCO3)c2n1 3.41%
Cc1cc2nccc(C)c2cc1C -10.9%
CC(=O)O[C@H]1C(=O)[C@@]2(C)[C@H]([C@H](OC(=O)c3ccccc3)[C@]3(O)C[C@H](OC(=O)[C@H](O)[C@@H](NC(=O)c4ccccc4)c4ccccc4)C(C)=C1C3(C)C)[C@]1(OC(C)=O)CO[C@@H]1C[C@@H]2O -0.237% and -9.58%
COc1cccc(Cn2c(=O)c(-c3ccccc3)nc3cncnc32)c1 5.45%
COc1ccc(/C=C/C(=O)/C=C/c2ccc(OC)cc2OC)c(OC)c1 -29.5%
C[S+](C)CCC(N)C(=O)O (stereo unspecified) 4.13%
Cc1ccc2ccccc2n1 -24.8%
COc1cc(=O)n2c(c1C(=O)N(C)Cc1nonc1C)CCN(C(=O)c1ccc(C)c(C)c1)CC2 -14.5%
CC1=C(C(=O)O)N2C(=O)C(NC(=O)C(N)c3ccccc3)C2SC1 (stereo unspecified) -10.1%
CN(C(Cc1ccc(OS(=O)(=O)c2cccc3cnccc23)cc1)C(=O)N1CCN(c2ccccc2)CC1)S(=O)(=O)c1cccc2cnccc12 (stereo unspecified) -6.95%
Cc1cnc(CNc2ccnc(-c3cccc(C#N)c3)n2)cn1 -2.78%
COc1ccccc1CN1CCCC2(CCN(C(=O)c3cccn3C)CC2)C1 0.831%
CCCN(CCC)CCc1cccc2c1CC(=O)N2 -23.9% and -20%
N=C(N)c1ccc(N)cc1 -26.6%
CCNc1ncc2nc(CCc3ccccc3)c(=O)n(Cc3ccc(F)cc3)c2n1 5.59%
Cc1noc(C)c1C(=O)N1CCC[C@@]2(CCN(C(=O)Nc3cccc(F)c3)C2)C1 -19.7%
C/C=C/c1ccc(OC)cc1 5.75% and -0.148%
CCCCN=C(N)N=C(N)N -11.6%
CS(=O)(=O)N1CCC2(CCCN(c3ccccn3)C2)CC1 -17.6%
COc1ccc(CN2CCOc3ccc(CN4CCCCC4CO)cc3C2)c(OC)c1 (stereo unspecified) 5.24%
COc1cccc(Cn2c(=O)cnc3cnc(N4CCN(C)CC4)nc32)c1 -6.07%
Cc1cnc(CNc2nc(-c3ccc(N(C)C)cc3)nc3ccccc23)cn1 11.2%
COc1c(N2C[C@@H]3CCCN[C@H]3C2)c(F)cc2c(=O)c(C(=O)O)cn(C3CC3)c12 -6.61% and 22.3%
CC[C@H](CC[C@@H](C)C1CC[C@H]2[C@@H]3CC=C4C[C@@H](O)CC[C@]4(C)[C@H]3CC[C@]12C)C(C)C (stereo partly specified) -3.23%
COC(=O)/C=C/C(C)=C/C=C/C(C)=C/C=C/C=C(C)/C=C/C=C(C)/C=C/C(=O)O -11.6%
O=C(CCN1Cc2ccccc2OC(c2ccccc2F)C1)N1CCC(N2CCCC(O)C2)CC1 (stereo unspecified) -6.41%
COc1ccc(Oc2ncc3nc(-c4cn(C)c5ccccc45)c(=O)n(CCC#N)c3n2)cc1 -6.06%
Cc1cnc(CNc2ncncc2-c2ccc(C(=O)N(C)C)cc2)cn1 -7.22%
COC(=O)C[C@](O)(CCCC(C)(C)O)C(=O)O[C@@H]1C(OC)=C[C@]23CCCN2CCc2cc4c(cc2[C@H]13)OCO4 -5.6%
CCCS(=O)(=O)NCc1c(C)ncc2c1CCN(C(=O)c1cccc(C(F)(F)F)c1)C2 -13.6%
Clc1ccc(/C=C/c2ccnc3ccccc23)c(Cl)c1 -25.4%
COc1ccc2cc(CNCc3nonc3C)c(N3CCCC(CO)C3)nc2c1 (stereo unspecified) 4.89%
CCCCCCCCCCCCCCCCCCc1ccc(C(=O)/C=C/C(=O)O)cc1 -12.9%
COC(=O)C1[C@H]2SC(C)(C)C(C(=O)OC)N2C(=O)N1Cc1ccccc1 (stereo partly specified) -17.5%
